# Test results taken from PMC9911399, “Two distinct binding modes provide the RNA-binding protein RbFox with extraordinary sequence specificity”.
# Numbering of substitutions follows the chain as printed; changes in the protein carry UniProt numbers. The list shows a part of the results.
# T1: RBFOX1 RRM RbFoxmut (Fox-RRM*) (Homo sapiens, UniProt Q9NWB1 109-208, R118D;E147R;N151S;E152T)
# T1 sequence: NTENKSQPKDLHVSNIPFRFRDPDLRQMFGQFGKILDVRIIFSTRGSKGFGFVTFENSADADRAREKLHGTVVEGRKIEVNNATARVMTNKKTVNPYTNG
# B1: UGGUCGA (DNA:RNA)
# RNA: GGGAGACCGGAAUUCAGAUUGUCCUGGUCGAUUAAAUCCCGUCGUAGCCACCA
# DNA 1: CAATCTGAATTCCGGTCTCCC
# DNA 2: TGGTGGCTACGACGGGATT
# B2: UGAAAGA (DNA:RNA)
# RNA: B1 RNA with G27A, U28A, C29A
# DNA 1: CAATCTGAATTCCGGTCTCCC
# DNA 2: TGGTGGCTACGACGGGATT
# B3: AAGAAGG (DNA:RNA)
# RNA: B1 RNA with U25A, G26A, U28A, C29A, A31G
# DNA 1: CAATCTGAATTCCGGTCTCCC
# DNA 2: TGGTGGCTACGACGGGATT
# B4: GUCACAG (DNA:RNA)
# RNA: B1 RNA with U25G, G26U, G27C, U28A, G30A, A31G
# DNA 1: CAATCTGAATTCCGGTCTCCC
# DNA 2: TGGTGGCTACGACGGGATT
# B5: CCUUAAC (DNA:RNA)
# RNA: B1 RNA with U25C, G26C, G27U, C29A, G30A, A31C
# DNA 1: CAATCTGAATTCCGGTCTCCC
# DNA 2: TGGTGGCTACGACGGGATT
# B6: UCAUCCU (DNA:RNA)
# RNA: B1 RNA with G26C, G27A, G30C, A31U
# DNA 1: CAATCTGAATTCCGGTCTCCC
# DNA 2: TGGTGGCTACGACGGGATT
# B7: GGCUCAC (DNA:RNA)
# RNA: B1 RNA with U25G, G27C, G30A, A31C
# DNA 1: CAATCTGAATTCCGGTCTCCC
# DNA 2: TGGTGGCTACGACGGGATT
# B8: UUAACCC (DNA:RNA)
# RNA: B1 RNA with G26U, G27A, U28A, G30C, A31C
# DNA 1: CAATCTGAATTCCGGTCTCCC
# DNA 2: TGGTGGCTACGACGGGATT
# B9: GCCAACG (DNA:RNA)
# RNA: GGGAGACCGGAAUUCAGAUUGUCCGCCAACGUUAAAUCCCGUCGUAGCCACCA
# DNA 1: CAATCTGAATTCCGGTCTCCC
# DNA 2: TGGTGGCTACGACGGGATT
# B10: AGUUUGA (DNA:RNA)
# RNA: B1 RNA with U25A, G27U, C29U
# DNA 1: CAATCTGAATTCCGGTCTCCC
# DNA 2: TGGTGGCTACGACGGGATT
# B11: AUUUAGU (DNA:RNA)
# RNA: B1 RNA with U25A, G26U, G27U, C29A, A31U
# DNA 1: CAATCTGAATTCCGGTCTCCC
# DNA 2: TGGTGGCTACGACGGGATT
# B12: CCGUCUG (DNA:RNA)
# RNA: B1 RNA with U25C, G26C, G30U, A31G
# DNA 1: CAATCTGAATTCCGGTCTCCC
# DNA 2: TGGTGGCTACGACGGGATT
# B13: CUUGUCA (DNA:RNA)
# RNA: B9 RNA with G25C, C26U, C27U, A28G, A29U, G31A
# DNA 1: CAATCTGAATTCCGGTCTCCC
# DNA 2: TGGTGGCTACGACGGGATT
# B14: CCGGCAC (DNA:RNA)
# RNA: B1 RNA with U25C, G26C, U28G, G30A, A31C
# DNA 1: CAATCTGAATTCCGGTCTCCC
# DNA 2: TGGTGGCTACGACGGGATT
# B15: AUUGAAG (DNA:RNA)
# RNA: B9 RNA with G25A, C26U, C27U, A28G, C30A
# DNA 1: CAATCTGAATTCCGGTCTCCC
# DNA 2: TGGTGGCTACGACGGGATT
# B16: CGAAGGA (DNA:RNA)
# RNA: B1 RNA with U25C, G27A, U28A, C29G
# DNA 1: CAATCTGAATTCCGGTCTCCC
# DNA 2: TGGTGGCTACGACGGGATT
# B17: AACUGGA (DNA:RNA)
# RNA: B1 RNA with U25A, G26A, G27C, C29G
# DNA 1: CAATCTGAATTCCGGTCTCCC
# DNA 2: TGGTGGCTACGACGGGATT
# B18: AACAAUU (DNA:RNA)
# RNA: B9 RNA with G25A, C26A, C30U, G31U
# DNA 1: CAATCTGAATTCCGGTCTCCC
# DNA 2: TGGTGGCTACGACGGGATT
# B19: GUACCCG (DNA:RNA)
# RNA: B9 RNA with C26U, C27A, A28C, A29C
# DNA 1: CAATCTGAATTCCGGTCTCCC
# DNA 2: TGGTGGCTACGACGGGATT
# B20: UAAUGGC (DNA:RNA)
# RNA: B1 RNA with G26A, G27A, C29G, A31C
# DNA 1: CAATCTGAATTCCGGTCTCCC
# DNA 2: TGGTGGCTACGACGGGATT
# B21: AAACUGA (DNA:RNA)
# RNA: B1 RNA with U25A, G26A, G27A, U28C, C29U
# DNA 1: CAATCTGAATTCCGGTCTCCC
# DNA 2: TGGTGGCTACGACGGGATT
# B22: UUAUGAG (DNA:RNA)
# RNA: B1 RNA with G26U, G27A, C29G, G30A, A31G
# DNA 1: CAATCTGAATTCCGGTCTCCC
# DNA 2: TGGTGGCTACGACGGGATT
# B23: AGCCUAC (DNA:RNA)
# RNA: B9 RNA with G25A, C26G, A28C, A29U, C30A, G31C
# DNA 1: CAATCTGAATTCCGGTCTCCC
# DNA 2: TGGTGGCTACGACGGGATT
# B24: AACCAUA (DNA:RNA)
# RNA: B9 RNA with G25A, C26A, A28C, C30U, G31A
# DNA 1: CAATCTGAATTCCGGTCTCCC
# DNA 2: TGGTGGCTACGACGGGATT
# B25: GUCACGG (DNA:RNA)
# RNA: B9 RNA with C26U, A29C, C30G
# DNA 1: CAATCTGAATTCCGGTCTCCC
# DNA 2: TGGTGGCTACGACGGGATT
# B26: GAAGUGU (DNA:RNA)
# RNA: B9 RNA with C26A, C27A, A28G, A29U, C30G, G31U
# DNA 1: CAATCTGAATTCCGGTCTCCC
# DNA 2: TGGTGGCTACGACGGGATT
# B27: UUGUCAG (DNA:RNA)
# RNA: B1 RNA with G26U, G30A, A31G
# DNA 1: CAATCTGAATTCCGGTCTCCC
# DNA 2: TGGTGGCTACGACGGGATT
# B28: GAACCUA (DNA:RNA)
# RNA: B1 RNA with U25G, G26A, G27A, U28C, G30U
# DNA 1: CAATCTGAATTCCGGTCTCCC
# DNA 2: TGGTGGCTACGACGGGATT
# B29: UUCACUA (DNA:RNA)
# RNA: B1 RNA with G26U, G27C, U28A, G30U
# DNA 1: CAATCTGAATTCCGGTCTCCC
# DNA 2: TGGTGGCTACGACGGGATT
# B30: GGCCUCU (DNA:RNA)
# RNA: B9 RNA with C26G, A28C, A29U, G31U
# DNA 1: CAATCTGAATTCCGGTCTCCC
# DNA 2: TGGTGGCTACGACGGGATT
# B31: CAGAGUC (DNA:RNA)
# RNA: B9 RNA with G25C, C26A, C27G, A29G, C30U, G31C
# DNA 1: CAATCTGAATTCCGGTCTCCC
# DNA 2: TGGTGGCTACGACGGGATT
# Molecular target: T1, RBFOX1 RRM RbFoxmut (Fox-RRM*)
# Experiment: EMSA; HiTS-Eq, 1 nM pool, 10 min; buffer printed only for the single-RNA assays: 10 mM Tris pH 7.5, 150 mM NaCl, 3.4 mM EDTA, 0.001% NP-40, 30 C
# Conditions: tags: His6 N-terminal (pET28a); label: 5' 32P
# Summary of the method: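 Purified RbFox RRM, wild type or mutant, was incubated for 10 min in 50 µL with 1 nM of a 5′-radiolabelled RNA pool carrying 7 randomized nucleotides, whose flanks were annealed to DNA oligonucleotides, over a series of increasing protein concentrations. Unbound RNA was resolved on 8% native PAGE, cut out, reverse-transcribed, barcoded by PCR and sequenced on an Illumina HiSeq 2500. Relative association constants were derived from changes in read counts for each RNA species versus the control reaction and normalised to the cognate motif.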
row,Binder,binding signal
1,B1,0.151 KA relative to UGCAUGU
2,B2,0.0616 KA relative to UGCAUGU
3,B3,0.0703 KA relative to UGCAUGU
4,B4,0.0995 KA relative to UGCAUGU
5,B5,0.0615 KA relative to UGCAUGU
6,B6,0.0791 KA relative to UGCAUGU
7,B7,0.104 KA relative to UGCAUGU
8,B8,0.0583 KA relative to UGCAUGU
9,B9,0.0923 KA relative to UGCAUGU
10,B10,0.169 KA relative to UGCAUGU
11,B11,0.131 KA relative to UGCAUGU
12,B12,0.122 KA relative to UGCAUGU
13,B13,0.132 KA relative to UGCAUGU
14,B14,0.0571 KA relative to UGCAUGU
15,B15,0.141 KA relative to UGCAUGU
16,B16,0.0736 KA relative to UGCAUGU

row,Binder,binding signal
1,B17,0.0617 KA relative to UGCAUGU
2,B18,0.0602 KA relative to UGCAUGU
3,B19,0.0877 KA relative to UGCAUGU
4,B20,0.102 KA relative to UGCAUGU
5,B21,0.0428 KA relative to UGCAUGU
6,B22,0.12 KA relative to UGCAUGU
7,B23,0.0767 KA relative to UGCAUGU
8,B24,0.0829 KA relative to UGCAUGU
9,B25,0.0964 KA relative to UGCAUGU
10,B26,0.125 KA relative to UGCAUGU
11,B27,0.132 KA relative to UGCAUGU
12,B28,0.0903 KA relative to UGCAUGU
13,B29,0.147 KA relative to UGCAUGU
14,B30,0.0835 KA relative to UGCAUGU
15,B31,0.111 KA relative to UGCAUGU
